Measured values taken from PubChem BioAssay AID881 (National Center for Advancing Translational Sciences (NCATS), 2007).
“And” between values parts separate entries of the source, which are not always exact repeats. Equal values may be shown once. The campaign covered roughly 110,000 compounds. About 610 (0.55%) were called active. The shares of active, inactive and inconclusive entries below differ from those in the screen. Calls come from the whole dose curve; as a rule, active = well fitted inhibition curve with a large enough effect; inconclusive = small, poorly fitted or top-dose-only effect; inactive = no such curve, though single readings can be large or run the other way. A potency beside an inconclusive call is a rough fit, not a confirmed value.

What follows are compounds tested against Polyunsaturated fatty acid lipoxygenase ALOX15B (Homo sapiens) (UniProt O15296) (assay: qHTS Assay for Inhibitors of 15-hLO-2 (15-human lipoxygenase 2)). Conditions: purified 15hLO-2, xylenol orange hydroperoxide absorbance; activity change, negative = inhibition: at 57.1 µM (top of the series) unless noted.
Sequence of UniProt O15296 (O15296 whole entry, looked up): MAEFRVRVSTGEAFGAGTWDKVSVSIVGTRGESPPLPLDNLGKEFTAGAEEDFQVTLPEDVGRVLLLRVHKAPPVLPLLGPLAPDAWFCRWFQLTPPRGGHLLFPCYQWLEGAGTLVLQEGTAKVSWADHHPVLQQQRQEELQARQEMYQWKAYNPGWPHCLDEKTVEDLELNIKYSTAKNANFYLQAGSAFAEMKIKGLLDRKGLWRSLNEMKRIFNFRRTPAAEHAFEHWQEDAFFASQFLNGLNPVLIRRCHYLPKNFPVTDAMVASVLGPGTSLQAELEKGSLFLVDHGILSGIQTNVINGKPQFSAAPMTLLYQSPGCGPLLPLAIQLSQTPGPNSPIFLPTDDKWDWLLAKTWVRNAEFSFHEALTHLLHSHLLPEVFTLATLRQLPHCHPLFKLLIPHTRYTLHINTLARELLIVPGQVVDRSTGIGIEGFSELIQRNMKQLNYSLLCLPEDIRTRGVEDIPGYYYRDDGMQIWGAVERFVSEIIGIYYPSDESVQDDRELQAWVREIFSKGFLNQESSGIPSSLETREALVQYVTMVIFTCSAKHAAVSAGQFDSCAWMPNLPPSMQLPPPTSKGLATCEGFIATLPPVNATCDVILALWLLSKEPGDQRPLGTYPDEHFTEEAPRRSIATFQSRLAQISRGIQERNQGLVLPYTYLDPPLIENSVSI
Summary of the method: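 Screening format was qHTS against 50 nM purified 15hLO-2 in Hepes pH 7.5 with detergent. Activity follows hydroperoxide formation from 45 uM arachidonic acid, measured as 573:405 nm absorbance ratio of the ferric-xylenol orange complex.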
% is set by controls: 0 for no effect and ±100 for the full control effect; potency is the fitted concentration of half-maximal effect; tags give direction and shape of the fitted curve.
Note: nearly all actives have a fitted effect of over 60% in size.

Question: `O=C(CSc1ncn(-c2ccccc2)n1)N1CCc2ccccc21` was tested. Which Potency did it give?
Answer: inconclusive: 25.1 µM [inhibitor, single point]

Question: How did the Potency turn out when `S=c1[nH]nc(C2CCCCC2)n1/N=C/c1cccs1` was run?
Answer: inconclusive: 15.8 µM [inhibitor, partial curve]

Question: Which Potency does the source give for `Fc1ccc(CNC(=S)Nc2ccc(Cl)cc2)cc1` here?
Answer: inconclusive: 15.8 µM [inhibitor, single point]

Question: `O=C(O)c1ccccc1C(=O)NNc1ccc(Cl)cc1` was tested. Which Potency did it give?
Answer: inconclusive: 12.6 µM [inhibitor, partial curve]

Question: Which Potency does the source give for `Cc1ccc(C(=O)CCNc2ccc(Br)cc2)o1` here?
Answer: inactive

Question: Which Potency does the source give for `COc1ccc(C2NC(=O)NC3=C2CCc2ccccc23)cc1` (stereo not given) here?
Answer: inconclusive: 20 µM [inhibitor, partial curve]

Question: `COc1ccc2oc(=O)c(-c3nnc(NCc4ccco4)s3)cc2c1` was tested. Which Potency did it give?
Answer: inconclusive: 15.8 µM [inhibitor, partial curve]

Question: How did the Potency turn out when `O=Cc1cn(-c2ccccc2)nc1-c1cc2c(ccc3ccccc32)oc1=O` was run?
Answer: inconclusive: 20 µM [inhibitor, single point]

Question: How did the Potency turn out when `COc1ccc(-c2nc(Cc3ccc(Cl)cc3)no2)cc1OC` was run?
Answer: inactive

Question: How did the Potency turn out when `Cc1cccc(NC(=S)/N=C(\N)Nc2nc(C)c3ccc(C)cc3n2)c1` was run?
Answer: inconclusive: 20 µM [inhibitor, partial curve]

Question: How did the Potency turn out when `O=C1CCCc2c1cc(C(=O)Nc1ccc(Br)cn1)c(=O)n2-c1ccccc1` was run?
Answer: inconclusive: 39.8 µM [inhibitor, single point]

Question: With `CCOc1cc(NC(=O)C2CCCCC2)c(OCC)cc1NC(=O)c1ccco1` as the compound, how does the Potency read?
Answer: inactive

Question: Which Potency does the source give for `N#Cc1c(-c2ccccc2)cc(-c2ccco2)c(C#N)c1N` here?
Answer: inconclusive: 31.6 µM [inhibitor, partial curve]

Question: How did the Potency turn out when `CC1=Nn2c(nnc2-c2ccco2)SC1` was run?
Answer: inactive

Question: For `COc1ccc(C2CC(=O)N3CN(c4ccc(C)c(Cl)c4)CSC3=C2C#N)cc1OC` (stereo not given), which Potency is on record?
Answer: active: 25.1 µM

Question: With `O=C(O)CCc1c2ccc(=O)c(O)c-2oc2c(O)c(O)ccc12` as the compound, how does the Potency read?
Answer: inconclusive: 7.94 µM [inhibitor, single point]

Question: How did the Potency turn out when `CCCCc1cc(O)c(CCCC)c(O)c1` was run?
Answer: inconclusive: 15.8 µM [inhibitor, partial curve, poor fit]

Question: For `COc1ccc(CCn2c(=S)[nH]c3cc(C(=O)NCc4ccco4)ccc3c2=O)cc1OC`, which Potency is on record?
Answer: inconclusive: 12.6 µM [inhibitor, partial curve]

Question: For `CC(C)C(=O)N(c1cc2sc(=O)oc2c2ccccc12)S(=O)(=O)c1cccs1`, which Potency is on record?
Answer: inconclusive: 20 µM [inhibitor, partial curve]

Question: `CCn1c(N2CCN(S(=O)(=O)c3ccccc3C(F)(F)F)CC2)nc2ccccc21` was tested. Which Potency did it give?
Answer: inactive

Question: How did the Potency turn out when `O=C(O)c1ccccc1C(=O)Nc1n[nH]c(=S)s1` was run?
Answer: inconclusive: 31.6 µM [inhibitor, single point]

Question: For `O=c1oc2c3c4c(cc2s1)CCCN4CCC3`, which Potency is on record?
Answer: inconclusive: 15.8 µM [inhibitor, partial curve]

Question: How did the Potency turn out when `O=C(c1ccncc1)N1CCC2(CCCN(Cc3ccncc3)C2)CC1` was run?
Answer: inactive

Question: Which Potency does the source give for `CCc1ccc(OCC(=O)NC(NC(=S)Nc2ccc(C)cc2C)C(Cl)(Cl)Cl)cc1` (stereo not given) here?
Answer: inconclusive: 10 µM [inhibitor, partial curve]

Question: How did the Potency turn out when `N#CCC(=O)NC(=O)NCC1CC1` was run?
Answer: inconclusive: 7.94 µM [inhibitor, partial curve]

Question: `O=C(Cc1ccc(Cl)cc1)c1c(O)cc(O)cc1O` was tested. Which Potency did it give?
Answer: inconclusive: 39.8 µM [inhibitor, partial curve, poor fit]

Question: With `O=C(NC(NC(=S)Nc1cc(Cl)ccc1Cl)C(Cl)(Cl)Cl)c1ccco1` (stereo not given) as the compound, how does the Potency read?
Answer: inconclusive: 25.1 µM [inhibitor, single point]

Question: Which Potency does the source give for `O=C1c2cccc3c([N+](=O)[O-])ccc(c23)C(=O)N1c1ccccn1` here?
Answer: inconclusive: 12.6 µM [inhibitor, partial curve, poor fit]

Question: For `O=[N+]([O-])c1ccc(N2CCOCC2)nc1`, which Potency is on record?
Answer: inconclusive: 12.6 µM [inhibitor, single point]

Question: Which Potency does the source give for `CCCCCC1=C2CNC(CCC)(C(=O)OC)C=C2C(C)C1=O` (stereo not given) here?
Answer: inactive

Question: With `COc1ccc(-c2cc(C(=O)N3CCCCC3)no2)cc1OC` as the compound, how does the Potency read?
Answer: inactive

Question: `CCCc1cc(=O)oc2c(C)c(OCC(=O)c3ccc(N4CCCC4)cc3)ccc12` was tested. Which Potency did it give?
Answer: inconclusive: 15.8 µM [inhibitor, partial curve]

Question: With `Cc1c(=O)n(OCc2ccccc2)c2ccccc2[n+]1[O-]` as the compound, how does the Potency read?
Answer: inactive

Question: For `O=[N+]([O-])c1ccc(S(=O)(=O)Cc2ccccc2)c2nonc12`, which Potency is on record?
Answer: inconclusive: 2.51 µM [inhibitor, partial curve]

Question: Which Potency does the source give for `COC(=O)c1cc(S(=O)(=O)N2CCOCC2)ccc1Sc1ccccc1N` here?
Answer: inconclusive: 25.1 µM [inhibitor, single point]

Question: How did the Potency turn out when `CCCOC(=O)CSc1nnc(-c2ccccc2Cl)o1` was run?
Answer: inconclusive: 31.6 µM [inhibitor, single point]

Question: `Cc1ccc(NNS(=O)(=O)c2ccc(C)cc2)cc1` was tested. Which Potency did it give?
Answer: inconclusive: 12.6 µM [inhibitor, partial curve]

Question: How did the Potency turn out when `COc1cc(C(=S)N2CCC(C)CC2)ccc1O` was run?
Answer: inconclusive: 10 µM [inhibitor, partial curve]

Question: Which Potency does the source give for `COC(=O)Nc1ccccc1C(=O)N1CCCCC1` here?
Answer: inactive

Question: Which Potency does the source give for `Cc1ccc(N2C(N)=C(C#N)C(c3cccs3)C3=C2CC(C)(C)CC3=O)cc1` (stereo not given) here?
Answer: inactive

Question: How did the Potency turn out when `Cc1ccccc1NC(=S)NC(NC(=O)c1ccccc1C)C(Cl)(Cl)Cl` (stereo not given) was run?
Answer: inconclusive: 15.8 µM [inhibitor, partial curve]

Question: How did the Potency turn out when `COc1ccc(C(=O)N2CCC[C@@]3(CCN(c4cccc(-c5ccccc5)c4)C3)C2)cc1` was run?
Answer: inconclusive: 7.94 µM [inhibitor, full curve, poor fit]

Question: `CCn1c(SCC(=O)c2ccc(O)c(O)c2)nnc1-c1ccccc1OC` was tested. Which Potency did it give?
Answer: inactive

Question: With `CC1(C)CC(=O)c2c(oc3cc(O)c(O)cc23)C1` as the compound, how does the Potency read?
Answer: inconclusive: 10 µM [inhibitor, partial curve] and inconclusive: 15.8 µM [inhibitor, partial curve]

Question: With `Cc1cc(O)c(-c2cc(O)c(C)cc2O)cc1O` as the compound, how does the Potency read?
Answer: inconclusive: 1.58 µM [inhibitor, partial curve]

Question: How did the Potency turn out when `O=C(NCC1CCCO1)c1cc(-c2ccco2)nc2ccccc12` (stereo not given) was run?
Answer: inconclusive: 12.6 µM [inhibitor, partial curve]

Question: Which Potency does the source give for `CC1CCCC2(C1)NC(=S)N(c1ccccc1)N2` (stereo not given) here?
Answer: inconclusive: 10 µM [inhibitor, partial curve]

Question: With `Cc1noc(C)c1COC(=O)c1ccc2c(c1)S(=O)(=O)c1ccccc1C2=O` as the compound, how does the Potency read?
Answer: inactive

Question: With `CCOc1ncccc1C(=O)OCc1cc(=O)oc2c(C)c(C)ccc12` as the compound, how does the Potency read?
Answer: inconclusive: 39.8 µM [inhibitor, single point]

Question: Which Potency does the source give for `Cc1ccccc1CS(=O)(=O)c1nnc([C@H](Cc2ccccc2)NC(=O)OC(C)(C)C)o1` here?
Answer: inconclusive: 10 µM [inhibitor, partial curve]

Question: For `Cc1ccc(C2C(/C=C3/SC(=S)NC3=O)=C(c3cccs3)Oc3ccccc32)cc1` (stereo not given), which Potency is on record?
Answer: inconclusive: 12.6 µM [inhibitor, partial curve]

Question: `O=C(O)CCN1C(=O)/C(=C/c2ccc(-c3nc4ccccc4s3)o2)SC1=S` was tested. Which Potency did it give?
Answer: inconclusive: 15.8 µM [inhibitor, partial curve]

Question: `CCn1c(O)c(C=NC2CCCC2)sc1=S` was tested. Which Potency did it give?
Answer: inconclusive: 15.8 µM [inhibitor, partial curve]

Question: With `O=C(NC(=S)Nc1ccc(N2CCCCC2)c(Cl)c1)c1ccc2c(c1)OCCO2` as the compound, how does the Potency read?
Answer: active: 10 µM

Question: Which Potency does the source give for `N#C/C(=N\Nc1cccc(Cl)c1)C(=O)c1ccccc1` here?
Answer: inactive

Question: With `Cc1ccccc1NC1=C/C(=N\S(=O)(=O)c2cccs2)c2ccccc2C1=O` as the compound, how does the Potency read?
Answer: inconclusive: 12.6 µM [inhibitor, partial curve]

Question: With `CNC(=O)[C@@H]1O[C@@H](n2cnc3c(NCc4cccc(I)c4)ncnc32)[C@H](O)[C@@H]1O` as the compound, how does the Potency read?
Answer: inactive

Question: With `O=S(=O)(Nc1nc2ccc(S(=O)(=O)N3CCCC3)cc2s1)c1ccc(F)cc1` as the compound, how does the Potency read?
Answer: inconclusive: 20 µM [inhibitor, partial curve]

Question: For `CC(C)C1Nc2ccc(S(N)(=O)=O)cc2C2C=CCC21` (stereo not given), which Potency is on record?
Answer: inconclusive: 15.8 µM [inhibitor, partial curve]

Question: Which activity change, negative = inhibition does the source give for `C[C@@]1(CCOCc2ccccc2)NC(=O)NC1=O` here?
Answer: inactive: -5.32% [at 11.4 µM]

Question: Which Potency does the source give for `Cc1cc(C(=O)CSc2nnc(-c3cccc(F)c3)n2N)c(C)n1Cc1ccc2c(c1)OCO2` here?
Answer: inconclusive: 25.1 µM [inhibitor, single point]

Question: Which Potency does the source give for `CC1CCc2cc(F)ccc2N1C(=O)CSc1nnc2c(n1)[nH]c1ccc(F)cc12` (stereo not given) here?
Answer: inconclusive: 25.1 µM [inhibitor, single point]

Question: Which Potency does the source give for `CCOC(=O)c1cc(-c2cc3ccccc3o2)nc2c1c(=O)[nH]c(=O)n2CCOC` here?
Answer: inconclusive: 25.1 µM [inhibitor, single point]

Question: For `O=[n+]1cc(-c2ccccc2)n([O-])c2c1CCC2`, which Potency is on record?
Answer: inactive

Question: `C=CC(C1=CC(=O)C=CC1=O)c1ccccc1` (stereo not given) was tested. Which Potency did it give?
Answer: inconclusive: 31.6 µM [inhibitor, single point]

Question: `O=C(CSc1nc2ccccc2s1)N1c2ccccc2Sc2ccccc21` was tested. Which Potency did it give?
Answer: inconclusive: 25.1 µM [inhibitor, single point]

Question: How did the Potency turn out when `CCOc1ccc(-c2nc(C#N)c(N3CCOCC3)o2)cc1` was run?
Answer: inactive

Question: With `O=C(CSc1cn(CCNC(=O)c2cccs2)c2ccccc12)NC1CCCC1` as the compound, how does the Potency read?
Answer: inactive

Question: How did the Potency turn out when `Cn1c(=O)c2c(nc(SCc3cccnc3)n2Cc2ccccc2)n(C)c1=O` was run?
Answer: inconclusive: 25.1 µM [inhibitor, single point]

Question: Which Potency does the source give for `COCc1cc(C)nc2sc3c(=O)n(-c4cccc5ccccc45)nnc3c12` here?
Answer: inconclusive: 7.94 µM [inhibitor, full curve]
